From the RNAGym collection of RNA variant scans (doi:10.7554/elife.90254)
Read counts are not given, so values of variants with three or more changes are uncertain.

B1: LINE1-mini (parent)
chain: GGCAGAGCUCAACACAGCGUGGCAAAGUGGCUGUGGCUAGACUGCC

Variants of: B1
Test: self-cleavage, relative activity (ratio to wild type); higher = more cleavage; in vitro, sequencing; the parent is a self-cleaving ribozyme

Row | Variant | self-cleavage
1 | GGCCGAGCUGAACACAGCGUGGCAAAGUGGCCGUGGCUAGACUGCC [A4C C10G U32C] | 0.01
2 | GGCCGAGCUCACCACAGCGUGGCAAAGUCGUUGUGGCUAGACUGCC [A4C A12C G29C C31U] | 0.04
3 | GGCCGAGCUCAACACCGCGUGGCUAAGUGGCCGUGGUUAGACUGCC [A4C A16C A24U U32C C37U] | 0.02
4 | GGCCGAGCUCAACACUGCGUGGCAAAGUGGCUGUGGUUAGACUGCC [A4C A16U C37U] | 0.04
5 | GGCCGAGCUCAACACAGCGUGGCGAAGUGGCUGUGGCUAGACGGCC [A4C A24G U43G] | 0.22
6 | GGCCGAGCUCAAAACAGCGUGUCAAACUGGCUGUGGCUAGACUGCU [A4C C13A G22U G27C C46U] | 0.08
7 | GGCCGAGCUGAACAAAUCGUGGCAAAGAGGCUGUGUCUAGACUGCC [A4C C10G C15A G17U U28A G36U] | 0.02
8 | GGCCGAGCUCAACACAGCGUGGCAAGGUGGCUGUCACUAGACUCCC [A4C A26G G35C G36A G44C] | 0.02
9 | GGCCGAGUUCAACACAGCGUGGCACAGUUGCUGUGGUAAGACUGCC [A4C C8U A25C G29U C37U U38A] | 0.31
10 | GGCCGAGAUCAACACGGCUUGGCAAAGUGGCUGCGGCGAGACUGAC [A4C C8A A16G G19U U34C U38G C45A] | 0.02
11 | GGCCGAGCUUAACACAGCGUGGCCAAGUGGCUGUGACUAGAUUGCC [A4C C10U A24C G36A C42U] | 0.02
12 | GGCCGAGCUUAACACAGCGUGGGAAAGUGGCUGUUGCUAGACUGCC [A4C C10U C23G G35U] | 0.01
13 | GGCCGAGCUCAACACAGCGUGGCAGAGUGGCUGUGGCAAGACUGCC [A4C A25G U38A] | 0.07
14 | GGCCGAGCUCACCACAGCGUGCCAAAAUGGCUGUGGCUAGACUGCC [A4C A12C G22C G27A] | 0.07
15 | GGCCGAGAUCAUCACAGCGUGGCAAAGUGGCUGUGGCUAGAUUGCC [A4C C8A A12U C42U] | 0.41
16 | GGCCGAGCUAGACACAGCGUGGAAAAGUGGCUGUGGCUAGACUGCA [A4C C10A A11G C23A C46A] | 0.01
17 | GGCCGAGCUCAACGCAGCGUGGCAAAGUGGCUGUGGCUACACUGCC [A4C A14G G40C] | 0.08
18 | GGCCGAGAUCAACACAGUGUGGCAAAGUGGCUGUGGCUAGACUGCC [A4C C8A C18U] | 0.1
19 | GGCCGAGCUAAACACAGCGUGGCAAAGUCGUUGUGGCUAGACAGCC [A4C C10A G29C C31U U43A] | 0

Row | Variant | self-cleavage
20 | GGCCGAGCUCAACGCAGCGUGGCGAAGUGGCUGUGGCUAGACUGCC [A4C A14G A24G] | 0.09
21 | GGCCGAGCUCAACACAGCGUGGCCUAGUGGCUGUGGCUACAUUACC [A4C A24C A25U G40C C42U G44A] | 0
22 | GGCCGAGCUUAAAACAGCGUGGCAAAGUGGGUGCGUCUAGACUGCC [A4C C10U C13A C31G U34C G36U] | 0.02
23 | GGCCGAGUUCAACACAACGUGGCAAAGUGGCUGUGUCUAGACUACC [A4C C8U G17A G36U G44A] | 0.03
24 | GGCCGAGCUCAACACAGCGUGGCAAAGUGGCUGUGGCUAGGCUCCC [A4C A41G G44C] | 0.07
25 | GGCCGAGCUUACCACAGCGUGGCAAAGUGGCUGUGGCUAGACUGCC [A4C C10U A12C] | 0.02
26 | GGCCGAGCUGAACACAGCGCGGCAAAGUGGCUGUGGCUAGACUGCC [A4C C10G U20C] | 0.02
27 | GGCCGAGCUCAACACAGCGUGGCACAGUGGCCGUGGCUAGACUGCC [A4C A25C U32C] | 0.07
28 | GGCCGAGCUCAACACUGCGUGGCAAAGUGGCUGGGGCUAGACUACC [A4C A16U U34G G44A] | 0.17
29 | GGCCGAGCUAAACACAGCGUGGCAAAGUCGCCGAGGCUAGACUGCU [A4C C10A G29C U32C U34A C46U] | 0.01
30 | GGCCGAGCUCAACACAGCGUGGCACAGUGGCUGUGGCUAUACUGCC [A4C A25C G40U] | 0.1
31 | GGCCGAGCUAAACACAGCGUGGCCAGGUGGCUGUGGCUAGACUGUC [A4C C10A A24C A26G C45U] | 0.01
32 | GGCCGAGCUCAAAACAGCGUGGCAAAUUGGCUGUGGCUAGACUGCC [A4C C13A G27U] | 0.09
33 | GGCCGAGCUCAACACAGCGUGGCAAGGUGGCUGUGGCUAGAAUGCC [A4C A26G C42A] | 0.08
34 | GGCCGAGCUGGACACAGCGCGGCAAAGUGGCUGUGGCUAGACUGCA [A4C C10G A11G U20C C46A] | 0
35 | GGCCGAGCUCAACACCGCGUGGCAAAGUGGCUGUGGCUAAACUGCC [A4C A16C G40A] | 0.1
36 | GGCCGAGCUAAACACAGCGUGGCAAAGUGGCAGUGGCUAGACUGCC [A4C C10A U32A] | 0.04
37 | GGCCGAGCUGAAUACAGCGUGGCAAAUUGGCACUGGCUAGACUGCA [A4C C10G C13U G27U U32A G33C C46A] | 0.01
38 | GGCCGAGCUUAACAAAGCGUGGCAAAGUGGCUGUGGCUAGACUGCC [A4C C10U C15A] | 0.04

Row | Variant | self-cleavage
39 | GGCCGAGGUCAACAGAGCGUGGCAAAGUGGCUGUGGCUAGACUGCC [A4C C8G C15G] | 0.08
40 | GGCCGAGCUCAACCCAGCGUGCCAAAGUGGCUGUGGCUGGACUGCU [A4C A14C G22C A39G C46U] | 0.31
41 | GGCCGAGGCCAACACAGCGUGGCAAAGUGGCUGUGGCUAGGCUGCC [A4C C8G U9C A41G] | 0.02
42 | GGCCGAGCUCAGCACAGCGUGGCAAAGUGGCUGUGGCUAGACUGCU [A4C A12G C46U] | 0.27
43 | GGCCGAGCUGAAGACAGCGUGGCAAAGUGACUGUGGCUAGACUGCC [A4C C10G C13G G30A] | 0.01
44 | GGCCGAGCUAAACACAGCUUGGCCAUGUGGCUGUGGCUAGACUGCC [A4C C10A G19U A24C A26U] | 0
45 | GGCCGAGCUCAAAACAGGGUGGGAAAGUGGCUGUGGCUAGACUCCC [A4C C13A C18G C23G G44C] | 0.02
46 | GGCCGAGCUCAACUCAACGUGGCAAAGUGGCUGUGGCUAGACUUCC [A4C A14U G17A G44U] | 0.31
47 | GGCCGAGCUCAACCCAGCGUGGCAAAGUGGCUGUGCCUAGACAGCC [A4C A14C G36C U43A] | 0.05
48 | GGCCGAGCUCAACCCAGCGUGACAAAGUGGCUGUGGCUAGACUGCC [A4C A14C G22A] | 0.01
49 | GGCCGAGCUCAACUCAGCGUGGCAAAGUGAAUGUGGCUAGACUGCC [A4C A14U G30A C31A] | 0.14
50 | GGCCGAGAUCAACACAGCGUGGCAAAGUGGCUGUAGCUAGACUGCC [A4C C8A G35A] | 0.93
51 | GGCCGAGCUCAACUCGGCGUGGCAAAUUGGCUGUGGCUAGACUGCC [A4C A14U A16G G27U] | 0.02
52 | GGCCGAGCUCACCACAGCGUGGCAAAGUGGCUGAGGCUAGACUGCA [A4C A12C U34A C46A] | 0.08
53 | GGCCGAGCUGAACACAGCGUGGCAAAGUGGCUGUAGCUAGACUUCC [A4C C10G G35A G44U] | 0
54 | GGCCGAGCUCAAGACCGCGUGGCAAAGUUGCUGUGACUAGACUGCC [A4C C13G A16C G29U G36A] | 0.02
55 | GGCCGAGCUCAACCCAGCGUGGCAAAGUGGUUGUGGCUAGACUGCC [A4C A14C C31U] | 0.05
56 | GGCCGAGCUCAACACAGCGUGGCAAUGUGGCUGUGGCUAGUCUGCC [A4C A26U A41U] | 0.18
